Results published in PubChem BioAssay AID686979 (National Center for Advancing Translational Sciences (NCATS), 2013).
Hit rate of the full screen: of about 420,000 compounds, about 50,000 (12%) were called active. Inconclusive means that the source gave no clear call. Such entries were picked first, then a sample of the others. The call rests on the fitted dose curve; in most records, active means well fitted inhibition curve with a large enough effect; inconclusive means small, poorly fitted or top-dose-only effect; inactive means flat fitted curve, though single readings scatter. No potency is given beside an inconclusive call; the fits are too rough.

assay: qHTS for Inhibitors of human tyrosyl-DNA phosphodiesterase 1 (TDP1): qHTS in cells in presence of CPT; conditions: chicken DT40 Tdp1-/-;hTDP1 cells + 20 nM CPT, ATP luminescence, 48 h; activity change, negative = growth inhibition: at 46.2 µM (top of the series); further: nearly all actives have a fitted effect of over 55% in size
Method in brief: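 Chicken DT40 Tdp1-/- cells stably complemented with human TDP1 were seeded at 400 cells/well in medium containing 20 nM camptothecin, exposed to pin-transferred compounds, and grown at 37 °C for at least 48 hr. Viability was read as ATP luminescence.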
On the % scale 0 is the no-effect control and ±100 the full control effect; potency means the concentration at half of the fitted maximal effect; tags describe the fitted curve by direction and shape.

SMILES	Potency	activity change, negative = growth inhibition
Nc1c(C(=O)Nc2ccccc2F)sc2nc3c(cc12)CCCCCC3	active: 2.59 µM	–
O=C(COC(=O)c1ccc(O)cc1O)NC1CCCCCC1	inconclusive [inhibitor, single point]	–
Cc1ccc(NS(=O)(=O)c2cc(-c3cnc(C4CC4)o3)ccc2C)cc1Cl	active: 7.31 µM	–
Cc1ccc(Cl)cc1-c1cc(C(=O)N2CCc3ccccc3C2)[nH]n1	active: 16.4 µM	–
O=C(COC(=O)/C=C/c1cccc(F)c1)Nc1ccccc1-c1ccccc1	inactive	–
CN1C(=O)CSC1=S	inactive	–
COC(=O)c1cc(CSc2nnc(NC3CCCCC3)s2)oc1C	inconclusive [inhibitor, single point]	–
Cc1ccccc1C1C(C#N)=C2N=C(N)c3ccccc3N2C2=C1C(=O)CCC2 (centres undefined)	inactive	–
CC(=O)Nc1ccc(/C=C(\C#N)C(=O)NCc2ccccc2)cc1	inactive	–
COc1ccc(NC(=O)NC2(C(=O)N3CCCC(C)C3)CCCCC2)cc1 (centres undefined)	inconclusive [inhibitor, single point]	–
COc1ccc(Cl)cc1N(C)C(=O)c1cc2c(=O)oc3ccc(C)cc3c2s1	inconclusive [inhibitor, single point]	–
COc1cc(C)nc(NC(=S)N(C)C(=O)c2ccccc2)n1	inactive	–
COc1ccc(Cc2nc3c4cnn(-c5ccccc5F)c4ncn3n2)cc1	inconclusive [inhibitor, single point]	–
Cc1cc(CNC(=O)COc2ccc(C)c(C)c2)c2ccccc2n1	inconclusive [inhibitor, partial curve]	–
CCOC(=O)CC(=O)CSc1nc(-c2ccc3c(c2)OCO3)cc(C(F)(F)F)c1C#N	inactive	–
CCOC(=O)c1ccccc1NC(=O)CN1CCCN(Cc2cccc(Cl)c2)S1(=O)=O	inconclusive [inhibitor, single point]	–
CN(CCO)c1ccc(-c2n[nH]c(=O)c3ccccc23)cc1[N+](=O)[O-]	inconclusive [inhibitor, partial curve]	–
Cc1ccnc2c1ccc1c(C)ccnc12	active: 0.92 µM	–
CC(C)C(OC(=O)/C=C/c1ccc2c(c1)OCO2)C(=O)NC(N)=O (centres undefined)	inactive	–
CCOc1ccc(C(=O)C2CCN(CC(=O)Nc3nccs3)CC2)cc1	inconclusive [inhibitor, single point]	–
COc1ccccc1-c1cc(C(=O)N/N=C\c2cn(C)nc2C)c2ccccc2n1	inconclusive [inhibitor, partial curve]	–
CCc1ccccc1NC(=O)CN1CCCN(Cc2cc(C)ccc2C)S1(=O)=O	active: 14.6 µM	–
COCc1cc(=O)n2[nH]cc(-c3ccccc3)c2n1	inconclusive [inhibitor, partial curve]	–
CCCCNC(=O)c1cc(-c2ccc(OC)cc2)nc2n[nH]c(-c3cccc([N+](=O)[O-])c3)c12	active: 20.6 µM	–
CCOC(=O)c1[nH]c2cc3c(cc2c1NC(=O)CN1CC(C)CC(C)C1)OCO3 (centres undefined)	inconclusive [inhibitor, partial curve, poor fit]	–

SMILES	Potency	activity change, negative = growth inhibition
Cc1ccc(CNC(=O)c2ccc3c(c2)nc2n3CCOC2)cc1	inactive	–
Cc1ccc(-n2nc(C)c3c(C(=O)NCCc4ccccc4)cc(C)nc32)cc1	inconclusive [inhibitor, single point]	–
CCN(CC)c1ccc(C(=O)NCc2ccc3c(c2)CCN3C(=O)c2ccc(F)cc2)cc1	active: 5.8 µM	–
CC1(C)CC(=O)C2=C(C1)OC(N)=C(C#N)C2CCc1ccccc1 (centres undefined)	inconclusive [inhibitor, single point]	–
CC1(C)C(=O)Nc2ccccc2N1C(=O)COC(=O)CNS(=O)(=O)c1ccc(Br)cc1Cl	inactive	–
O=C(O)c1ccc(Cl)c(S(=O)(=O)N2CCCC2)c1	inactive	–
CCN(CC)CCCNC(=O)c1nn(C)c2c1CSc1ccccc1-2	inconclusive [inhibitor, single point]	–
COc1cccc(OCc2nc3ncc(Br)cc3[nH]2)c1	active: 4.11 µM	–
COc1cc(Cc2ccc(N)c(OC)c2)ccc1N	–	inconclusive: -30.7% [inhibitor]
Cc1nc(NC(=O)CSc2nnc(-c3ccc4c(c3)OCO4)o2)c(Cl)cc1Cl	inactive	–
COc1ccccc1-c1cc(C(=O)Nc2cc(OC)c(OC)c(OC)c2)no1	active: 0.517 µM	–
COc1ccc(CCNC(=O)Nc2ccccc2[N+](=O)[O-])cc1	inactive	–
C=CCn1cccc(C(=O)Nc2ccc(OC)c(Cl)c2)c1=O	inactive	–
COCCNCCCCOc1ccc(Br)cc1C	inconclusive [inhibitor, single point]	–
COc1ccc(C(=O)NNc2ncnc3c2cnn3-c2cccc(Cl)c2)cc1OC	inconclusive [inhibitor, single point]	–
NC(=O)c1cc2ccc(O)cc2oc1=Nc1ccccc1	active: 14.6 µM	–
CC1CCCN(C(=O)c2ccc(S(=O)(=O)Nc3ccccc3Cl)cc2)C1 (centres undefined)	inconclusive [inhibitor, single point]	–
COc1ccc(C(C)=O)cc1CSc1nc(NCCc2ccccc2)c2ccccc2n1	active: 18.4 µM	–
Cc1noc(C)c1S(=O)(=O)N(CC(=O)N1CCCCCC1)c1ccc(C(C)C)cc1	inconclusive [inhibitor, single point]	–
COc1cccc(N2CC(NC(=O)C(=O)c3c(C)[nH]c4ccccc34)CC2=O)c1 (centres undefined)	inactive	–
COc1ccc(C2=NOC(C(=O)NCc3ccco3)C2)cc1 (centres undefined)	active: 3.98 µM	–
Cc1ccc(C(=O)N2CCN(c3cc4c(cc3[N+](=O)[O-])n(C)c(=O)n4C)CC2)cc1	inconclusive [inhibitor, partial curve]	–
Cc1cccc(N(CC(=O)NCCSCc2cccc(Cl)c2)S(=O)(=O)c2ccccc2)c1C	inconclusive [inhibitor, single point]	–
CCCS(=O)(=O)c1c(S(=O)(=O)CCC)c2cc(CC)ccn2c1C(=O)c1ccc(Cl)cc1	active: 14.6 µM	–
Cc1cc(C)c(C(=O)OCC(=O)Nc2cccc(S(=O)(=O)N3CCCCC3)c2)c(C)c1	inconclusive [inhibitor, single point]	–

SMILES	Potency	activity change, negative = growth inhibition
CCOC(=O)CN1C(=O)NC2(CCCc3ccccc32)C1=O (centres undefined)	inactive	–
COc1ccc(NC(=O)CCCN2C(=O)CN(C)C2=O)cc1Cl	inactive	–
CNC(=S)NCCCc1ccccc1	inactive	–
O=C(CN1C2=NCCN2c2ccccc21)c1ccc(Br)cc1	inconclusive [inhibitor, single point]	–
COC(=O)c1ccccc1NC(=O)c1cnn2c(C(F)F)cc(C3CC3)nc12	inconclusive [inhibitor, single point]	–
CSCCC(NC(=O)c1ccccc1Br)C(=O)N1CCC(C)CC1 (centres undefined)	inactive	–
N#C/C(=C\c1ccc([N+](=O)[O-])cc1)C(=O)NCCCn1ccnc1	inconclusive [inhibitor, single point]	–
O=C(Nc1cc(S(=O)(=O)N2CCCCC2)ccc1Cl)c1ccc(F)cc1	inactive	–
O=c1c(-c2ccco2)nc2ccccc2n1C(CCc1ccccc1)c1nc2ccccc2[nH]1 (centres undefined)	inconclusive [inhibitor, single point]	–
CCN1C(=O)[C@H]2[C@@H](c3ccc(C)cc3)N3C(=O)N(c4ccc(C(F)(F)F)cc4)C(=O)[C@@]3(CC)[C@H]2C1=O	inconclusive [inhibitor, single point]	–
CC(C)(Oc1ccc(Cl)cc1)C(=O)Nc1c2c(nn1C(C)(C)C)CS(=O)(=O)C2	inconclusive [inhibitor, single point]	–
CCC1CCCCN1CCCNC(=O)c1ccc2c(=O)n(Cc3ccc(OC)cc3)c(=O)[nH]c2c1 (centres undefined)	inactive	–
COc1ccccc1CCNC(=O)C(=O)NCC1OCCN1S(=O)(=O)c1ccc2c(c1)OCCO2 (centres undefined)	inconclusive [inhibitor, partial curve, poor fit]	–
O[Si](CCCN1CCCCC1)(c1ccc(F)cc1)C1CCCCC1 (centres undefined)	inconclusive [inhibitor, partial curve]	–
COc1ccc(Cl)cc1CNCCSc1nnnn1-c1ccccc1	inconclusive [inhibitor, single point]	–
O=C(c1ccc(Cl)c(S(=O)(=O)N2CCCCC2)c1)N1CCCCC1	inconclusive [inhibitor, single point]	–
COc1ccc(NC(=O)CCCNC(=O)Cn2cnc3sc(C)c(C)c3c2=O)cc1OC	inactive	–
O=C(CN1C(=O)COc2ccccc21)N(Cc1ccccc1)Cc1ccccn1	inactive	–
COCCN(CCOC)c1nc(-c2ccc(C)cc2)nc2ccccc12	inconclusive [inhibitor, single point]	–
CCn1c(SCC(=O)N2CCc3ccccc3C2)nc2c1c(=O)n(C)c(=O)n2C	active: 23.1 µM	–
CCN1CCN(CCNC(=O)c2ccc3c(c2)NC(=O)/C(=C\c2cccc(Cl)c2)S3)CC1	active: 23.1 µM	–
O=C(c1cc(-c2cccnc2)nc2ccc(Cl)cc12)N1CCN(S(=O)(=O)c2cccs2)CC1	inconclusive [inhibitor, single point]	–
FC(F)(F)c1ccccc1-c1nc(NCc2cccs2)c2ccccc2n1	inconclusive [inhibitor, single point]	–
CC1=Nc2ccccc2/C1=C/c1sc(=O)n(CC(=O)N2CCCC2)c1O	inconclusive [inhibitor, partial curve, poor fit]	–
